This note sets out measurements from patent publication EP4814015A1 (Ewha University-Industry Collaboration Foundation, dated 2026).

To fix the notation:
T1: recombinant CD300c protein (Sino Biological), human CD300c extracellular domain Met1-Arg183 (human, UniProt Q08708 21-183)
T1 construct: Bought protein, expressed in HEK293 cells; also called CD300c antigen
T1 sequence: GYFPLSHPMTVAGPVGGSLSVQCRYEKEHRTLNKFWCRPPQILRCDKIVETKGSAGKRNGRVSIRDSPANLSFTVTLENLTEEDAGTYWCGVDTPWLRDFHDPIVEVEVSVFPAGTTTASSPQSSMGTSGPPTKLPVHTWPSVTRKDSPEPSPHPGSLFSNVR

T2: recombinant CD300c protein (MyBioSource), extracellular domain (His22-His188) of mouse CD300c (mouse, UniProt A2A7V7 22-188)
T2 construct: Bought protein; also called mouse CD300c protein
T2 sequence: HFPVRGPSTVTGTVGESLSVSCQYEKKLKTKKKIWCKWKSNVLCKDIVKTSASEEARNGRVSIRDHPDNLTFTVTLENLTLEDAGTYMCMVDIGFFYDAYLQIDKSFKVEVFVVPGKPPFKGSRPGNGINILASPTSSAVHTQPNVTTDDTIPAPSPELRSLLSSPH

B1: JEWR-314 anti-CD300c scFv-Fc antibody (scFv)
scFv: ELVMTQSPSSLSASVRDRVTITCQASHDISKYLNWYQQKSGKAPKLLIYDASNLETGVPSRFSGSGSGTDFTLTISSLQPEDFATYYCQQSYSTPLTFGGGTKVDIKGGSSRSSSSGGGGSGGGGQVQLQESGGGLVQPGGSLRLSCAASGFNFRNYAMSWVRQTPGKGLEWVSAINGRGDTTYYADSVKDRFTISRDNSKNSLYLQMNSLRAEDTAVYYCAAGAYSSSFGEEGQGTLVIVSS[human IgG1 Fc not given here]
notes: domain: Fc; Tested as scFv-Fc (human IgG1)
B2: JEWR-235 anti-CD300c scFv-Fc antibody (scFv)
scFv: ELVLTQPPSTSATPGQTVTISCSGSHSNIGTNTVNWYQQLPGAAPKLLIYSDSFRPTGVPGRFSGSKSGTSASLVISGLRSEDEADYYCAAWDDSLNGPVFGGGTQLTVLGGGSSRSSSSGGGGSGGGGEVQLVQSGAEVKKPGASVKVSCKASGYTFTSYGISWVRQAPGQGLEWMGWISVYNGNTNSAQKLQGRVTMTTDTSTSTAYMELRSLRSDDTAVYYCAREDSSSFDYWGQGTLVTVSS[human IgG1 Fc not given here]
notes: as for B1
B3: JEWR-139 anti-CD300c scFv-Fc antibody (scFv)
scFv: ELVMTQSPSSLSASVGDRVTITCQASHDISKYLNWYQQKSGKAPKLLIYDASNLETGVPSRFSGSGSATDFTLTISSLQPEDFATYYCQQSYSTPLTFGGGTRLEIKGGSSRSSSSGGGGSGGGGQITLKESGGGLVQPGRSLRLSCAAAGFTFGGYAMHWVRQAPGKGLEWVSGISWNGGDIAYADSVKGRFTISRDNAKNSLYLQMNSLGAEDTALYYCAKSSWWKGDAFDIWGQGTMVTVSS[human IgG1 Fc not given here]
notes: as for B1
B4: JEWR-375 anti-CD300c scFv-Fc antibody (scFv)
scFv: ELQMTQSPSSLSASVGDRVTITCQASHDISKYLNWYQQKSGKAPKLLIYDASNLETGVPSRFSGSGSGTDFTLTISSLQPEDFATYYCQQSYSTPLTFGGGTKVDIKGGSSRSSSSGGGGSGGGGQVQLQQWGGGLVKPGGSLRLSCAASGFNFRNYAMSWVRQTPGKGLEWVSAINGRGDTTYYADSVKGRFTISRDNSKDTLYLQMNSLRAEDTAVYYCARGPYYFDYGGQGTLVTVSS[human IgG1 Fc not given here]
notes: as for B1
B5: JEWR-195 anti-CD300c scFv-Fc antibody (scFv)
scFv: ELQMTQSPSSLSASVGDRVTITCQASHDISKYLNWYQQKSGKAPKLLIYDASNLETGVPSRFSGSGSGTDFTLTISSLQPEDFATYYCQQSYSTPLTFGGGTKVTVLGGGSSRSSSSGGGGSGGGGQVQLQESGGGLVQPGGSLRLSCAASGFNFRNYAMSWVRQTPGKGLEWVSAINGRGDTTYYADSVKGRFTISRDNAKNSLYLQMNSLRAEDTAVYYCASGAYYYNYWGQGTLVTVSS[human IgG1 Fc not given here]
notes: as for B1
B6: JEWR-22 anti-CD300c scFv-Fc antibody (scFv)
scFv: ELALTQSPSSLSASVGDRVTITCQASHDISKYLNWYQQKSGKAPKLLIYDASNLETGVPSRFSGSGSGTDFTLTISSLQPEDFATYYCQQSYSTPLTFGGGTKLEIKGGSSRSSSSGGGGSGGGGQVQLQESGPGLVKPSQTLSLTCTVSGGSISSGSYYWSWIRQPAGKGLEWIGRIYSSGSTKYNPSLKSRVTISKDTSKNQFSLKLSSVTAADTAVYYCASSVAGQNVDYWGQGTLVTVSS[human IgG1 Fc not given here]
notes: domain: Fc
B7: JEWR-332 anti-CD300c scFv-Fc antibody (scFv)
scFv: ELTLTQSPSSLSASVGDRVTITCQASHDISKYLNWYQQKSGKAPKLLIYDASNLETGVPSRFSGSGSGTDFTLTISSLQPEDFAIYYCQQSYSTPLTFGGGTKLEIKGGSSRSSSSGGGGSGGGGQVQLVQSGGGVVQPGRSLRLSCAASGFTFSSYAMTWVRQAPGKGLEWVSAISGSGGSTYYADSVKGRFTISRDNAKNTLYLQMNSLRAEDTAVYYCARGPYYFDYWGQGTLVTVSS[human IgG1 Fc not given here]
notes: as for B1
B8: JEWR-M10 anti-mouse CD300c scFv-Fc antibody (scFv)
scFv: ELALTQPPSVSGSPGQSITLSCTGTSSDIGDYNYVSWYQQHPGKAPKLIIYEVNNRPSGVSIRFSGSKSGNTASLTISGLQAEDEADYYCTSYTPRSIVFGGGTQLTVLGGGSSRSSSSGGGGSGGGGEVQLVQSGGGVVRPGGSLRLSCAASGFTFDDYGMSWVRQAPGKGLEWVSGINWNGGSTIYADSVKGRFIISRDNAKNSLYLQMNSLRAEDTALYYCVRGPDLDYWGQGTLLIVSS[human IgG1 Fc not given here]
notes: domain: Fc

What is called EC50 is the midpoint of the concentration-response curve.

The first assay addresses T1, recombinant CD300c protein (Sino …). Briefly: ELISA, CD300c antigen coated at 1 µg/ml, scFv-Fc 0 to 1 µg/ml, anti-human IgG-HRP. In general terms: In an ELISA, binding on a coated surface is turned into a signal by an enzyme label.
With B1, the EC50 is 0.031 µg/mL. As to B2, the EC50 was 0.18 µg/mL. The same measure, in the same setting: as for B3, the figure is 0.0671 µg/mL; as for B4, 0.0295 µg/mL. Consider B5, for which the EC50 was determined as 0.0075 µg/mL. Still for that read-out and setting: as for B6, the figure is 0.0602 µg/mL; as for B7, 0.0146 µg/mL.

In a further assay the target is T2, recombinant CD300c protein …. Description: ELISA on coated mouse CD300c, order of binding strength.
Regarding B8, the binding result was “binds”.
